Measured values as given in paper PMC7041945, “Misfolded proteins bind and activate death receptor 5 to trigger apoptosis during unresolved endoplasmic reticulum stress” (eLife, 2020).

Experiments:
MPZ-ecto peptide = biological target: T1, MPZ-ecto peptide (human); assay: other fluorescence titration; fluorescence de-quenching: AlexaFluor647-DR5L ECD (200 nM) pre-incubated with 100 μM or 200 μM MPZ-ecto peptide, increasing concentrations of unlabeled DR5L ECD; settings: both partners purified
T1 construct: stretch of the ectodomain of human myelin protein zero; The array spots are 18-residue peptides; also called spots C18-C19 of the peptide array; source: synthetic peptide, GenScript (>95% purity); as spots C18-C19 on the peptide array of the MIT Biopolymers Laboratory
T1 peptide: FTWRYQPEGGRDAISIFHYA

[1] = biological target: the molecule itself; assay: cross-linking; 10 μM FLAG-tagged DR5L ECD without peptide, 100 μM BS3 for 20 min at RT, 20 mM HEPES pH 7.2, 150 mM NaCl; anti-FLAG blot

B1: unlabeled DR5L ECD (domain or fragment)
chain: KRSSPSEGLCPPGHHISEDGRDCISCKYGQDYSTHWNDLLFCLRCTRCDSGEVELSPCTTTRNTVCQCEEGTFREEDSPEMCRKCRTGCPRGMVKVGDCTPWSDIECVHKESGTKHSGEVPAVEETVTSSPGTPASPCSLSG
notes: human DR5 ECD, long isoform, […]; also called unlabeled DR5 ECD; source: SF21 (baculovirus), secreted, purified (HisTrapFF, SuperDex200)
- binding result (MPZ-ecto peptide): binds

B2: FLAG-tagged DR5 long isoform ECD (domain or fragment)
chain: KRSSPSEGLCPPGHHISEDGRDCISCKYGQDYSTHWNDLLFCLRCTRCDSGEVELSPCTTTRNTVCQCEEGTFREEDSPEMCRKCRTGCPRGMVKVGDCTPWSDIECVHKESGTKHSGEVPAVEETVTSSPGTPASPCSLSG
notes: human DR5 ECD, long isoform, […]; Dimer without peptide by cross-linking; multimers with peptide; also called FLAG-tagged DR5L ECD; recombinant DR5L ECD; source: SF21 (baculovirus), secreted, purified (HisTrapFF, SuperDex200); not shown: FLAG, C-terminal, kept
- stoichiometry N [1]: 2
